# Measurements from publication PMC12136788.
# The list shows a part of the results.
# T1: UNK ZnF1-3 (human, UniProt Q9C0B0 31-174)
# T1 sequence: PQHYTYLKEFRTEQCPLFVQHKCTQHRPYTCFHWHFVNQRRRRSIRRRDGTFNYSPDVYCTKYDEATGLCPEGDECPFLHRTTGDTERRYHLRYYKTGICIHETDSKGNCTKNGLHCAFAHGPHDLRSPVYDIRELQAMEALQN
# B1: 80932254_80933479_467_CDS_ENSMUSG00000034818_ENSMUST00000118763|mouse|control|control (ssRNA)
# RNA: GGGAGUUCUACAGUCCGACGAUCCACGAAGGCACAGCCUUUGCUGCUGCCAUCUGGUCCUCGAAGCACUGUGCACUCGUCUAUGACGCCAAAGGGCUGGAAGAGCCUGAGCACGUCUUCCUCUGACUGCUGCUUGUUGAGCAUCAACAGAGGAUUGAGCAUCA
# B2: chr16:94664741:94664742:+_ENSMUSG00000040785_ENSMUST00000117648|mus_hu|mus_mus_mus_hu_False|1_38 (ssRNA)
# RNA: GGGAGUUCUACAGUCCGACGAUCUGGUACUGAUCUUGGUAGCUGAUAUUCAGGAGAAAGGCUGGCCAAGGGUGUAUAUAUGCUGGUGUACUGGGGCAGGCUAGGUAACACGUUUAUGUAUGCUGGCGGUGUCUGGGUGCCAAACAACAGAGGAUUGAGCAUCA
# B3: chr17:60770872:60770873:+_ENSG00000011028_ENST00000303375|hu_hu|hu_hu_hu_mus_True|68_108 (ssRNA)
# RNA: GGGAGUUCUACAGUCCGACGAUCUCUCUUUUCUUUUAAAAAAAAAGACAAACAAUAAUAGCACAUUAUUUAAAAAAAGAACUACAAUAGAGGGUCCGCUUUGAGUUUUUGUUCACAUCGUCCUGCACUGGGACACGGGGACUGCAACAGAGGAUUGAGCAUCA
# B4: chr2:50987981:50987982:-_ENSMUSG00000017144_ENSMUST00000017288|mus_mus|motif|central (ssRNA)
# RNA: GGGAGUUCUACAGUCCGACGAUCGGUGGCGACGUGAAAAAUGUCUCUGACGCUGUUUUCUGACUGUAAAGCUGAGCAUUCGGUGUAAGUGGCUGCUCCGAUCUGCUUGGCCAUAUUUGCCCCCUGGUCAUAUGACACAGGAGUCAACAGAGGAUUGAGCAUCA
# B5: 41625212_41641310_204_CDS_ENSG00000137804_ENST00000414849|human|control|control (ssRNA)
# RNA: GGGAGUUCUACAGUCCGACGAUCAGUUUGACUUUCAUCCUGAUUCUCAUUUCCUUUUCUUGCCUCAUGUUUAAUGUAGCCUUUCAAGGCUUUUAACAACUUGGUUGCCCUCAGGUUGGCCCGGAGACCCAGACUCUUGGCUAACAACAGAGGAUUGAGCAUCA
# B6: chr1:135029974:135029975:+_ENSMUSG00000046062_ENSMUST00000052529|mus_mus|FALSE|FALSE (ssRNA)
# RNA: GGGAGUUCUACAGUCCGACGAUCCUGACGGCCUUUCCAAUUCUUCCCUGACGGUUGAAAAGGAGCCUUAAAAUUUAAAAGGUUGUAGGGGUCCUCAGAAUGACAGAAAGAGUUCCACAAUUUAAGAUUCUCUGCUUCAUCUGCCAACAGAGGAUUGAGCAUCA
# B7: chr14:35505469:35505470:+_ENSMUSG00000041408_ENSMUST00000048263|mus_mus|FALSE|FALSE (ssRNA)
# RNA: GGGAGUUCUACAGUCCGACGAUCCUGGAUGGUAACAUUACACACUGACAAGCAAGAUGGAUGUAAAACAGUGUAAUCUCUAGUCCGUCCAACUGUUCCUCGAAAACUGGUCCCACAACUUGCACUACCUUUCUUUGCCUGAUUCAACAGAGGAUUGAGCAUCA
# B8: chr12:8716970:8716971:+_ENSMUSG00000020594_ENSMUST00000111122|mus_hu|FALSE|FALSE (ssRNA)
# RNA: GGGAGUUCUACAGUCCGACGAUCUGGAGAAGCCUUGCCUUUUUGAUCUCCUUUCUCAGGUCCAUCUGUUUCAGCAUCUCUAGUGCCAAAAUUUCCCUUCCUAAAUCGAGAAUCCAAUUUAUCAGCAGGAGAAGAACUUAAUACCAACAGAGGAUUGAGCAUCA
# B9: chr3:176767854:176767855:-_ENSG00000177565_ENST00000430069|hu_hu|hu_hu_hu_mus_False|48_68 (ssRNA)
# RNA: GGGAGUUCUACAGUCCGACGAUCGACAUCCUUGUUACUGGGCACGUCCUGCCCUCCUUCCCGUAUGCAAUGUCUAAGCACGAGCUGUGUAGAGCCACUCGUGCUGUUCUCACUGAGGUUCCAGAUUCUUGCCGUGGAGUCUCCCAACAGAGGAUUGAGCAUCA
# B10: 137520329_137520579_1933_CDS_ENSG00000112984_ENST00000394894|human|control|control (ssRNA)
# RNA: GGGAGUUCUACAGUCCGACGAUCUCGGAGAUGCAUCUCCAGCUGUAGCUUUUCCUGUCGUUCCUUCAAAAGCAGUGUCUUCAUGGCUUCCACAACUUGUAGGAGCUCCUCUUUGCCAUACAUGGAGAUGUCAGCUUCAUUUUCCAACAGAGGAUUGAGCAUCA
# B11: chr22:32879901:32879902:+_ENSG00000100225_ENST00000397426|hu_mus|hu_hu_hu_mus_False|8_78 (ssRNA)
# RNA: GGGAGUUCUACAGUCCGACGAUCCUCUUCCAUACUCAUGGCAUCCUGAAUUGACUCAGCUUCAAAAUUUUGACUAGGCCCUUCCAUACUGUCAUCAGUCCAGGCAUCAAAUGGGGUGGCCUGUCCUUGGAAUGAAUCAGUCCCCAACAGAGGAUUGAGCAUCA
# B12: chr14:62203736:62203737:+_ENSG00000100644_ENST00000337138|hu_mus|FALSE|FALSE (ssRNA)
# RNA: GGGAGUUCUACAGUCCGACGAUCGCCGGCAGCUGGAGCCAGCAGAGUGAGAGCAUCAGGCUCCUUCUUAAGCUUAUCAAAAAGGCAGCUUGUAUCCUCUGAUUCAACUUUGGUGAACAGCUGAGUCAUCUUCAUAUCUGAAGACAACAGAGGAUUGAGCAUCA
# B13: chr7:44244176:44244177:+_ENSG00000106636_ENST00000223369|hu_mus|hu_hu_hu_mus_False|78_108 (ssRNA)
# RNA: GGGAGUUCUACAGUCCGACGAUCACUAUCAUUCCGGACGUAGACAUGGCAAAGAUAGUCUUGUUCUUUGACAGAAGCUCUGCUGCCUUUCCCCGAGCGUUCCACAAUCAGUUGACUUGUAAAGGUCAUGAAUUCCUGCACACUCAACAGAGGAUUGAGCAUCA
# B14: chr5:31101443:31101444:+_ENSMUSG00000029168_ENSMUST00000114729|mus_hu|FALSE|FALSE (ssRNA)
# RNA: GGGAGUUCUACAGUCCGACGAUCGUGGCUUCUGGGUCAGUAUCAGAAAAGCCCUCAUCACGACAUCGGCUUGACAGAGACCUACUGUGGACUCCUAGCACUACACACACGCACGCACACGCACACACAGUAGCACAAUUUUCUCAACAGAGGAUUGAGCAUCA
# Molecular target: T1, UNK ZnF1-3
# Test: nsRBNS (natural sequence RNA bind-n-seq); RBNS binding buffer (assumed for nsRBNS): 25 mM Tris pH 7.5, 150 mM KCl, 3 mM MgCl2, 0.01% Triton X-100, 500 ug/ml BSA, 20 U/ml SUPERase-In, 4 C; UNK is unkempt and MSI1 is Musashi-1; names of the RNAs are library labels; protein concentration not given here; high values mean tight binding
row,Binder,binding signal
1,B1,0.967 enrichment R
2,B2,1.37 enrichment R
3,B3,1.27 enrichment R
4,B4,0.755 enrichment R
5,B5,0.546 enrichment R
6,B6,1.21 enrichment R
7,B7,0.809 enrichment R
8,B8,1.02 enrichment R
9,B9,0.529 enrichment R
10,B10,0.49 enrichment R
11,B11,1.37 enrichment R
12,B12,1.22 enrichment R
13,B13,0.771 enrichment R
14,B14,0.972 enrichment R
